# Assay results: the supplement of paper PMC10037445
# Over roughly 2,900 compounds, “IRF Lucia reporter activity, fold change vs agonist alone” has its median near 0.9; the highest 2% begin near 2.8. The list shows a part of the results.
# Assays:
# RAW-Dual [1] = experiment: IRF Lucia reporter activity, fold change vs agonist alone; higher = enhanced IRF activity; settings: library stock concentration (final ~1000-fold dilution): 10 mM, agonist: MPLA (TLR4) […]
# Procedure, shortened: (§1)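 RAW-Dual macrophages were seeded in DMEM at 50,000 cells/well in 384-well plates, given 50 nL of library stock by pin tool, and given a PRR agonist 1 h later. Plates were held at 37 °C, 5% CO2 for 20 hours, after which supernatant was read for IRF by QuantiLuc luminescence and for NF-κB by QuantiBlue absorbance at 620 nm. Reporter activity is expressed as fold change over wells that received agonist alone. A well was called cytotoxic when IncuCyte confluency fell below 70% of agonist controls in both mask sets.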
# RAW-Dual [2] = experiment: IRF Lucia reporter activity, fold change vs agonist alone; cytotoxicity flag (confluency mask): cytotoxic (confluency <70% of control); higher = enhanced IRF activity
# Procedure, shortened: as §1
# RAW-Dual [3] = experiment: IRF Lucia reporter activity, fold change vs agonist alone; cytotoxicity flag (confluency mask): not cytotoxic; higher = enhanced IRF activity
# Procedure, shortened: as §1
# [4] = agonist: 3'3'-cGAMP (STING) 10 ug/mL
# [5] = cytotoxicity flag (confluency mask): not cytotoxic
smiles,measurement,setting,value
CONC(=O)Nc1ccc(-c2sc3c(c2CN(C)C)c(=O)n(-c2ccc(OC)nn2)c(=O)n3Cc2c(F)cccc2F)cc1,IRF Lucia reporter activity,RAW-Dual [1]; cytotoxicity flag (confluency mask): cytotoxic (confluency <70% of control),1.85
CONC(=O)Nc1ccc(-c2sc3c(c2CN(C)C)c(=O)n(-c2ccc(OC)nn2)c(=O)n3Cc2c(F)cccc2F)cc1 (library stock concentration (final ~1000-fold dilution): 10 mM),IRF Lucia reporter activity,RAW-Dual [2]; [4],0.52
same,IRF Lucia reporter activity,RAW-Dual [2]; agonist: LPS (TLR4) 0.1 ug/mL,1.59
CCc1ccc(NC(=O)Nc2c[nH]c3ccccc23)cc1 (library stock concentration (final ~1000-fold dilution): 1 mM),IRF Lucia reporter activity,RAW-Dual [3]; [4],0.0266
same,IRF Lucia reporter activity,RAW-Dual [3]; agonist: LPS (TLR4) 0.1 ug/mL,0.636
O=C(O)CC(C(=O)O)N1C(=O)/C(=C2/C(=O)Nc3ccc(Br)cc32)SC1=S (stereo not drawn) (library stock concentration (final ~1000-fold dilution): 10 mM),IRF Lucia reporter activity,RAW-Dual [3]; [4],0.427
same,IRF Lucia reporter activity,RAW-Dual [3]; agonist: LPS (TLR4) 0.1 ug/mL,1.15
N=C(N)c1ccc(OCCCCCOc2ccc(C(=N)N)cc2)cc1.O=S(=O)(O)CCO.O=S(=O)(O)CCO,IRF Lucia reporter activity,RAW-Dual [1]; [5],1.2
N=C(N)c1ccc(OCCCCCOc2ccc(C(=N)N)cc2)cc1.O=S(=O)(O)CCO.O=S(=O)(O)CCO (library stock concentration (final ~1000-fold dilution): 10 mM),IRF Lucia reporter activity,RAW-Dual [3]; [4],0.98
same,IRF Lucia reporter activity,RAW-Dual [3]; agonist: LPS (TLR4) 0.1 ug/mL,1.4
CNC(=O)c1ccccc1Nc1cc(Nc2ccc(N3CCOCC3)cc2OC)ncc1C(F)(F)F (library stock concentration (final ~1000-fold dilution): 10 mM),IRF Lucia reporter activity,RAW-Dual [3]; [4],0.0797
same,IRF Lucia reporter activity,RAW-Dual [3]; agonist: LPS (TLR4) 0.1 ug/mL,0.307
CNC(=O)c1cc(Oc2ccc(NC(=O)Nc3ccc(Cl)c(C(F)(F)F)c3)cc2)ccn1,IRF Lucia reporter activity,RAW-Dual [1]; [5],1.21
CNC(=O)c1cc(Oc2ccc(NC(=O)Nc3ccc(Cl)c(C(F)(F)F)c3)cc2)ccn1 (library stock concentration (final ~1000-fold dilution): 10 mM),IRF Lucia reporter activity,RAW-Dual [3]; [4],0.122
same,IRF Lucia reporter activity,RAW-Dual [3]; agonist: LPS (TLR4) 0.1 ug/mL,1.47
Cc1ccc(S(=O)(=O)Cc2nc(-c3ccc(C(=O)NCc4cccnc4)cc3)oc2C)cc1,IRF Lucia reporter activity,RAW-Dual [1]; [5],0.649
Cc1ccc(S(=O)(=O)Cc2nc(-c3ccc(C(=O)NCc4cccnc4)cc3)oc2C)cc1 (library stock concentration (final ~1000-fold dilution): 10 mM),IRF Lucia reporter activity,RAW-Dual [3]; [4],0.831
same,IRF Lucia reporter activity,RAW-Dual [3]; agonist: LPS (TLR4) 0.1 ug/mL,0.438
O=C1CC(c2ccc(O)cc2)Oc2cc(O)cc(O)c21 (stereo not drawn) (library stock concentration (final ~1000-fold dilution): 10 mM),IRF Lucia reporter activity,RAW-Dual [3]; [4],0.853
same,IRF Lucia reporter activity,RAW-Dual [3]; agonist: LPS (TLR4) 0.1 ug/mL,0.848
O=C1CC(c2ccc(O)cc2)Oc2cc(O)cc(O)c21 (stereo not drawn),IRF Lucia reporter activity,RAW-Dual [1]; [5],0.931
CCn1cc(C(=O)O)c(=O)c2c(N)c(F)c(NC3CCCCC3)cc21 (library stock concentration (final ~1000-fold dilution): 10 mM),IRF Lucia reporter activity,RAW-Dual [3]; [4],0.545
same,IRF Lucia reporter activity,RAW-Dual [3]; agonist: LPS (TLR4) 0.1 ug/mL,0.223
